Laboratory results from the supplement of paper PMC3334620.
In all, about 33,000 sequences were measured (“E-score (-0.5 to 0.5)”: median about -0.012, highest 2% from about 0.27 on). The list shows a part of the results.

biological target: T1, Vhr1 (UniProt P40522); assay: PBM E-score (8-mer binding enrichment) (E-score (-0.5 to 0.5)); higher = stronger / more preferred TF binding; most listed sequences are background and not binding sites; details: protein concentration: 200 nM; construct: GST-full length
T1 sequence: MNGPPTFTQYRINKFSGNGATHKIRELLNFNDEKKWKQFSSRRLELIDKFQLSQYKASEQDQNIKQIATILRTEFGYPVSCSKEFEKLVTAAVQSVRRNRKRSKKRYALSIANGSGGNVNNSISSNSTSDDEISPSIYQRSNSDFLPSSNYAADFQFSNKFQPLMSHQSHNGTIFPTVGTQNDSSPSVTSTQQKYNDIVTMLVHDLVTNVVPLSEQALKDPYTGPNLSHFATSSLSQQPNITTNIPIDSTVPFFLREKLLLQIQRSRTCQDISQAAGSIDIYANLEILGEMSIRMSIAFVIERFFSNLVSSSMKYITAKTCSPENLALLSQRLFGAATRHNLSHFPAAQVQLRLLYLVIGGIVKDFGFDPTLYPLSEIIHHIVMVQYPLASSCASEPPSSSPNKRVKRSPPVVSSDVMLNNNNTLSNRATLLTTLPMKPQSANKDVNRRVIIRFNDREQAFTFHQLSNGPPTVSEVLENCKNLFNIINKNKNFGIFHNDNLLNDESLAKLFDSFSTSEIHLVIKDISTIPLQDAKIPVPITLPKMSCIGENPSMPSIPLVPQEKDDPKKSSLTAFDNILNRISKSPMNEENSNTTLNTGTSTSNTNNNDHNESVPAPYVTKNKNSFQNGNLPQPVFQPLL
In short: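 PURExpress in vitro transcription/translation supplied GST-tagged yeast transcription factors, either full-length or DNA-binding domain. Applied at about 100-200 nM to universal all-10-mer Agilent arrays double-stranded by primer extension, the bound protein was detected with fluorescent anti-GST. E-scores, modified Wilcoxon-Mann-Whitney statistics, were given by the Universal PBM Analysis Suite to ungapped eight-base words pooled with their reverse complements after masliner normalisation.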

| Sequence | PBM E-score |
| --- | --- |
| CGCGATGA | 0.241 |
| AAAACCGA | -0.0854 |
| AGCAGGGA | -0.0538 |
| ATTAATCA | 0.217 |
| TCATGACA | 0.209 |
| GAACGACC | -0.107 |
| CCTGAAGA | -0.0556 |
| CCAAACAA | -0.00796 |
| ACACCATG | 0.212 |
| ACGAATAC | 0.0945 |
| AATACGGC | 0.156 |
| AGTTGTGA | 0.112 |
| GGAAACAA | -0.108 |
| TAGATTAA | -0.026 |
| CCCCTGTA | 0.0333 |
| CAATCAAA | -0.008 |
| AACAATCC | 0.21 |
| ACACTAAT | 0.165 |
| CGGCTGTC | -0.116 |
| CCCGGCTC | -0.0335 |
| CGAGCGTC | -0.176 |
| CCTTCGAA | -0.198 |

| Sequence | PBM E-score |
| --- | --- |
| AGACTCTA | -0.0431 |
| CCGCCCGC | 0.173 |
| ATTATTGC | -0.0063 |
| CCTTGTAA | -0.068 |
| AAGCCTCG | 0.00094 |
| GATCAGAC | -0.163 |
| ACGGCAGT | -0.0959 |
| CAGCTGAC | 0.187 |
| CACACTCG | 0.224 |
| CTATCGGC | -0.0658 |
| CGTTGTGC | -0.0841 |
| AAGGCGAC | -0.132 |
| GAGATATA | -0.00259 |
| ATTCCTTC | 0.0252 |
| CACGTCGC | -0.188 |
| GCAGGAGC | -0.121 |
| ATCCACAA | -0.065 |
| AAGCGGCA | -0.0839 |
| GAAGCAAA | -0.215 |
| AAGTTGCA | -0.173 |
| CCGCGCGA | 0.22 |
| GTTATATA | 0.245 |

| Sequence | PBM E-score |
| --- | --- |
| TGTACGAA | 0.164 |
| CTCGAGAC | 0.154 |
| ATCAACTC | 0.0592 |
| CGGGGCGA | 0.207 |
| AGTACGAT | 0.242 |
| CAGTAGGC | -0.0769 |
| AACCCAAG | -0.0298 |
| CACTTAAC | -0.11 |
| ACCTCCGT | 0.00733 |
| GTACGTTA | 0.0729 |
| ACAATCAG | 0.0835 |
| GGGTCTTA | 0.0577 |
| CACGGCAC | -0.186 |
| CTTGTGGC | 0.0383 |
| ATTATAAT | 0.0549 |
| GGGGCCCC | 0.046 |
| CTTCCGAC | 0.0483 |
| GTTTCGTA | -0.0415 |
| ACCAACTC | 0.0754 |
| ACGCCAGT | 0.00194 |
| CTTATACC | -0.0429 |
| AGTCTAAA | -0.194 |

| Sequence | PBM E-score |
| --- | --- |
| CCAGAAAC | 0.0129 |
| AAAGCAGG | -0.0878 |
| GCATCCCA | -0.098 |
| GGTTGGTA | 0.0645 |
| CATGGGGG | -0.0184 |
| TGCCGGCA | -0.0519 |
| CAGCGCGA | -0.178 |
| CGCTACCG | -0.218 |
| AGCATAGC | -0.0351 |
| GGTCTCTA | -0.212 |
| GGAGTAAC | 0.0988 |
| AGCGATCA | -0.0576 |
| AAACGGGA | 0.0481 |
| AAAAATCG | -0.309 |
| AAGCTCCT | -0.222 |
| AAGTTCCG | -0.15 |
| GTGCAGGA | -0.00089 |
| TACTGAGA | 0.0431 |
| ACTTCTTA | -0.173 |
| GCCCCGAA | -0.0782 |
| CTATGATA | 0.203 |
| CAGCTCTA | -0.217 |

| Sequence | PBM E-score |
| --- | --- |
| GGTGTACA | 0.0547 |
| CTAAAGTA | -0.184 |
| AACGCCTC | -0.301 |
| CCAGTAAC | 0.0345 |
| ATTGCCGA | -0.0606 |
| AGCCTGCA | 0.116 |
| CTATATAG | 0.181 |
| CCAATTTA | 0.0832 |
| AGAATGGA | -0.0239 |
| CTTCCCCA | -0.00541 |
| AACGACCT | 0.0957 |
| CTGTGTGA | 0.306 |
| CATTGCGG | 0.178 |
| TTCATGAA | -0.0114 |
| GCGTGTGA | 0.104 |
| CGCTTATC | 0.0886 |
| ACCCGTAG | -0.0736 |
| ACAACCTC | -0.221 |
| ATCGCAAG | 0.218 |
| CAGGGGCG | 0.301 |
| AGGGGCTC | -0.218 |
| TACCCTCA | -0.0115 |
